In PubChem BioAssay AID463173 (ICCB-Longwood Screening Facility, Harvard Medical School, 2010):
Screen size: about 52,000 compounds; about 1,700 (3.3%) were called active. Cut-off read from the data, not from the text of the source: active = survival mostly below about 52% (no sharp cut-off); inactive = mostly above about 56%. The list shows a part of the results.

tested on: Wild type; experiment: S. aureus survival, RN4220 and DeltatarO strains – OD600, teichoic acid synthesis inhibitors, primary screen (AID 463173); settings: S. aureus RN4220 wild type/DeltatarO growth, OD600, 18 h, active compounds read low, screened at 18.75 µg/mL (by protocol)

Row | SMILES | survival
1 | CCc1cccc(NC(=O)Cn2nc(C)c3sc4ccccc4c3c2=O)c1 | inactive: 82%
2 | COc1ccc(NC(=O)c2cnc3sc(N4CCOCC4)nn3c2=O)c(OC)c1 | inactive: 66%
3 | Cc1ccc(OCc2cc(=O)n3cc(C)sc3n2)c(NC(=O)c2ccco2)c1 | inactive: 88%
4 | COc1cc(C(=O)Nc2c(C(=O)Nc3ccccc3F)oc3ccccc23)cc(OC)c1OC | inactive: 68%
5 | O=C(O)c1cc(N2C(=O)C3CC=CCC3C2=O)ccc1NCc1cccnc1 (stereo unspecified) | inactive: 115%
6 | Cc1ccc(C)c(NC(=O)Cn2cc(S(=O)(=O)NC(C)C)c(S(=O)(=O)NC(C)C)c2)c1 | inactive: 80%
7 | O=C(Nc1cccc(NC(=O)c2ccc(Br)cc2)c1)c1ccccc1 | inactive: 91%
8 | CCCn1c(NCc2ccccc2F)nc2ccccc21 | inactive: 89%
9 | CCC(=O)N1c2ccc(S(=O)(=O)CCC(=O)N3CCN(c4ccc(F)cc4)CC3)cc2CC1C (stereo unspecified) | inactive: 79%
10 | COc1ccc2c(c1)CC(NC(=O)Nc1ccc(Br)c(C)c1)CO2 (stereo unspecified) | inactive: 59%
11 | COC(=O)COc1ccc(S(=O)(=O)N2CCC(C)CC2)cc1 | inactive: 102%
12 | CCOC(=O)c1cc2c(=O)n3ccccc3nc2n(CC2CCCO2)c1=NC(=O)c1ccc(F)cc1 (stereo unspecified) | inactive: 66%
13 | N#CC1=C(N)NC(SCC(=O)Nc2ccc(Br)cc2)=C(C#N)C12CCCCC2 | inactive: 72%
14 | O=C(NCc1cccc(F)c1)c1ccc2nc(CCc3ccccc3)oc2c1 | inactive: 71%
15 | COc1ccc(-c2nnc(SCC(=O)Oc3cc(C)ccc3C)o2)cc1 | inactive: 86%
16 | Cc1ccc(-c2nc(Cn3c(SCc4ccc(F)cc4)nc4cccnc43)c(C)o2)cc1 | inactive: 77%
17 | COc1ccc(C(=O)Nc2nonc2-c2ccc(OC)c(OC)c2)cc1Cl | inactive: 91%
18 | CCCCCNC(=O)c1ccc2c(=O)n(CCc3ccccc3)c(=O)[nH]c2c1 | inactive: 72%
19 | CCOC(=O)N1CCc2c(sc(NCc3cccc(F)c3)c2C(=O)Nc2ccc(OCC)cc2)C1 | inactive: 73%
20 | CCN(C(=O)c1cccn(Cc2cccc(Cl)c2)c1=O)c1ccccc1 | inactive: 77%
21 | COc1ccc(CNc2ncnc3c2c(-c2ccccc2)cn3-c2cccc(C)c2)cc1 | inactive: 74%
22 | O=C(Nc1ccc2ccccc2c1)C1CC(=O)N(C2CCCCC2)C1 (stereo unspecified) | inactive: 116%
23 | CC(=O)c1ccc(S(=O)(=O)N2CCn3cccc3C2c2ccc(F)c(F)c2)cc1 (stereo unspecified) | inactive: 68%

Row | SMILES | survival
24 | CCc1cc(C(=O)NCc2ccc(F)cc2)no1 | inactive: 82%
25 | Nc1nc(CSc2ccccn2)nc(Nc2ccccc2)n1 | inactive: 113%
26 | Cc1ccc(N2CC(NC(=O)C3CCCC3)CC2=O)cc1C (stereo unspecified) | inactive: 101%
27 | CC(C)Oc1ccc(CNC(=O)c2ccc3c(c2)N(C)C(=O)C2CCCCN32)cc1 (stereo unspecified) | active: 10%
28 | Cc1cc(=O)c2c(o1)CC(C)(C)CC2=O | inactive: 110%
29 | CCN1CCN(c2cc(C)c3cc(NC(=O)/C=C/c4ccc(OCCC(C)C)cc4)ccc3n2)CC1 | inactive: 118%
30 | O=C(COc1ccccc1Cl)Nc1nc(-c2ccc(F)cc2)ns1 | inactive: 68%
31 | CCO/C(C)=N\Oc1nc2nonc2nc1O/N=C(/C)OCC | inactive: 109%
32 | COc1cccc(NC(=O)C2CCN(S(=O)(=O)c3c(C)noc3/C=C/c3cccs3)CC2)c1 | inactive: 84%
33 | C#CCNc1ccccc1 | inactive: 109%
34 | Cc1ccc(NC(=O)CSc2nc(C3CCCC3)nc3c2c(=O)n(C)c(=O)n3C)c(C)c1 | inactive: 75%
35 | CCc1nnc(SCc2nc(-c3cccc(C)c3)oc2C)c2cc3sc(C)cc3n12 | inactive: 94%
36 | COc1ccc(C(=O)Nc2cc(NC(=O)c3ccco3)ccc2OC)cc1Cl | inactive: 69%
37 | O=C(CSc1nccn1-c1ccc(F)cc1)Nc1cccc2ccccc12 | inactive: 94%
38 | CC(=O)Oc1ccccc1C(=O)N1CC(C)OC(C)C1 (stereo unspecified) | inactive: 97%
39 | CCOC(=O)c1c(-c2ccccc2)oc2cc(Br)c(OCc3ccccc3)cc12 | inactive: 57%
40 | CCn1c(=N)c(C(=O)NC2CCCC2)cc2c(=O)n3cc(C)ccc3nc21 | inactive: 67%
41 | Cc1ccc(OCCCCn2nnc3sc4c(c3c2=O)CCC(C)C4)cc1 (stereo unspecified) | inactive: 94%
42 | CC(C)CNS(=O)(=O)c1ccc(S(=O)(=O)N2CCCN(Cc3ccccc3)C2)cc1 | inactive: 97%
43 | Cc1ccc(Cl)cc1Nc1nn2c(=O)c3ccc(C(=O)NC4CCC(C)CC4)cc3nc2s1 (stereo unspecified) | inactive: 143%
44 | CN1CCN(C2(CNC(=O)COc3ccc(C(C)(C)C)cc3)CCCCC2)CC1 | inactive: 87%
45 | O=C(Cn1c(=O)n(-c2ccc(F)c(Cl)c2)c(=O)c2sc3ccccc3c21)NC1CCCCC1 | inactive: 82%
46 | Cc1ccc(NC(=O)C2CCCN(S(=O)(=O)c3cccc4nsnc34)C2)c(C)c1 (stereo unspecified) | inactive: 74%

Row | SMILES | survival
47 | CC(=O)N(Cc1ccccc1)Cc1cc2cc(C)ccc2n2nnnc12 | inactive: 107%
48 | CCN(CC)S(=O)(=O)c1ccc2c(c1)N(CC(=O)NCCCN1CCN(c3cc(C)ccc3C)CC1)C(=O)CO2 | inactive: 121%
49 | CCOc1ccc(C(=O)NCCc2csc(-c3cccnc3)n2)cc1 | inactive: 72%
50 | CCNC(=O)C1CCCN(c2nn3cc(-c4ccc(C)cc4)nc3s2)C1 (stereo unspecified) | inactive: 83%
51 | CC(C)c1ccc(CNCCSc2nnnn2-c2ccccc2)cc1 | inactive: 80%
52 | CCOCc1[nH]c(=S)[nH]c(=O)c1Cc1ccc(OCC)cc1 | inactive: 107%
53 | CC(C)c1ccc(NC(=O)CN2CCC(n3nnc4ccccc43)CC2)cc1 | inactive: 80%
54 | Cc1cc(C)cc(NC(=O)C2CCN(c3nc4ccccc4nc3C(F)(F)F)CC2)c1 | inactive: 74%
55 | CCOc1ccc(-n2nc3ccc(NC(=O)COc4ccccc4)cc3n2)cc1 | inactive: 90%
56 | CCC(C)S(=O)(=O)c1oc(-c2ccc(F)cc2)nc1S(=O)(=O)c1ccc(F)cc1 (stereo unspecified) | inactive: 49%
57 | Cc1scc(-c2ccccc2)[n+]1CCO | inactive: 109%
58 | CCc1ccc(NC(=O)Cn2c(=O)n(CCC(=O)NCCc3ccc(OC)c(OC)c3)c(=O)c3ccccc32)cc1 | inactive: 102%
59 | CN(Cc1ccccc1)C(=O)c1ccc(CSc2nc3cccnc3n2Cc2ccccc2)cc1 | inactive: 130%
60 | Cc1cccc(N2CCN(C(=O)Cc3c(C(=O)O)c(C)cn3C)CC2C)c1 (stereo unspecified) | inactive: 73%
61 | COC(=O)c1cc2c(ccn2-c2ccc(F)cc2)n1CC1CCCCC1 | inactive: 105%
62 | COc1ccc(N2CCN(C(=O)C3CCCN(S(=O)(=O)c4ccc5c(c4)oc(=O)n5C)C3)CC2)cc1 (stereo unspecified) | inactive: 89%
63 | CCC(=O)NCCc1sc2nc(-c3ccc(OC)cc3)nn2c1C | inactive: 77%
64 | COC(=O)c1c(NC(=O)COc2ccc(C(C)C)cc2)sc2c1CCCC2 | inactive: 51%
65 | COc1ccc(C2CC(=O)Nc3c2c(C)nn3-c2nc(C)cc(C)n2)c(OC)c1OC (stereo unspecified) | inactive: 85%
66 | COc1ccccc1CCNC(=O)C1(c2cccs2)CCOCC1 | inactive: 71%
67 | CCc1cccc(NC(=O)CCn2nc(C)cc2C)c1 | inactive: 77%
68 | COc1ccc(OC)c(NC(=O)c2nnn(CC(=O)Nc3ccc(C(C)C)cc3)c2N)c1 | inactive: 45%
69 | CCC(C)(C)Nc1ncccc1C(=O)O | inactive: 121%

Row | SMILES | survival
70 | COc1ccc(NC(=O)Cn2cnc3c(nc4n3CCCCC4)c2=O)cc1Cl | inactive: 72%
71 | CCCS(=O)(=O)Nc1cccc(-c2cn3ccsc3n2)c1 | inactive: 159%
72 | Cc1cccc(CSc2nc3ccncc3n2CC(=O)N(C)C2CCCCC2)c1 | inactive: 88%
73 | COc1ccc(CCNC(=O)c2ccc3nc(CCc4ccccc4)oc3c2)cc1OC | active: 10%
74 | COc1ccc(NC(=O)Cn2c(=O)oc3cc(S(=O)(=O)N4CCCC4)ccc32)cc1OC | inactive: 79%
75 | Cc1ccc(NC(=O)c2ccc(-c3ccccc3)s2)cc1 | inactive: 85%
76 | Cc1ccc(N2C(=O)CSC23C(=O)N(CC(=O)NCCc2ccccc2)c2ccccc23)cc1 (stereo unspecified) | inactive: 74%
77 | CCC1CN(C(=O)N2CCC(C(=O)NCc3cccs3)CC2)c2ccccc2O1 (stereo unspecified) | inactive: 88%
78 | N#CC1=C(N)Oc2n[nH]c(CSc3ccccc3)c2C1Cc1ccccc1 (stereo unspecified) | inactive: 106%
79 | O=c1oc2c(CN3CCOCC3)c(O)ccc2cc1-c1ccccc1 | inactive: 80%
80 | COc1ccc(N2CCN(C(=O)c3noc4c3CCCCC4)CC2)cc1 | inactive: 68%
81 | O=C(Nc1ccc2oc(-c3ccc(Br)cc3)nc2c1)c1cc2ccccc2o1 | inactive: 76%
82 | COc1cccc(CNCc2c(C(=O)O)n(Cc3ccc(C)cc3)c3cc(C)ccc23)c1OC | inactive: 106%
83 | CC(=O)c1ccc(NC(=O)c2sc(-n3nc(C)c(Cc4ccc5c(c4)OCO5)c3C)nc2C)cc1 | inactive: 81%
84 | CCC1CCCCN1CCCNC(=O)c1ccc2c(c1)N(Cc1cccc(Cl)c1)C(=O)c1ccccc1S2(=O)=O (stereo unspecified) | inactive: 65%
85 | Cc1nnc(NC(=O)CSc2nc3c([nH]c4ccccc43)c(=O)n2-c2cccc(Cl)c2)s1 | inactive: 71%
86 | COc1ccc(-c2nc3ccccc3o2)cc1NC(=O)c1cc(Br)ccc1OC | inactive: 66%
87 | COc1ccc(C)cc1NC(=O)NCCn1nnc2cc(S(=O)(=O)N(C)C)ccc21 | inactive: 67%
88 | O=C(NCCc1nc2ccccc2n1Cc1ccc(Cl)cc1)c1ccccc1 | inactive: 91%
89 | CCOC(=O)c1ccccc1NC(=O)c1sc2nc(-c3ccc(F)cc3)cn2c1C | inactive: 74%
90 | Cc1ccc(C(=O)OCc2cc(=O)n3nc(CC(C)C)sc3n2)cc1 | inactive: 127%
91 | COc1ccc(CCNC(=O)c2cnc3sc(N4CCCCCC4)nn3c2=O)cc1 | inactive: 72%
